Reference: PubChem BioAssay AID624173 (National Center for Advancing Translational Sciences (NCATS), 2012)
Screen size: about 410,000 compounds; about 490 (0.12%) were called active. The shares of active, inactive and inconclusive entries below differ from those in the screen. Calls come from the whole dose curve; as a rule, active = well fitted inhibition curve with a large enough effect; inconclusive = small, poorly fitted or top-dose-only effect; inactive = flat fitted curve, though single readings scatter. Potencies beside an inconclusive call are fits to weak or partial responses and may not hold up.

biological target: pyruvate kinase (Trypanosoma brucei) (UniProt Q57TT1); test: qHTS of Trypanosoma Brucei Inhibitors; settings: TbPYK enzyme, Kinase-Glo Plus ATP luminescence, 45 min; series mostly up to 76.8 µM; note: nearly all actives have a fitted effect of over 50% in size
Outline: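 In this concentration-response screen, enzyme-free wells defined baseline while DMSO plates tracked drift. Each reaction combined TbPYK, substrate, compound and 130 uM ADP for 45 min at room temperature. Kinase-Glo Plus luminescence gave the signal.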
Potency is the fitted concentration of half-maximal effect; tags give direction and shape of the fitted curve.

| Structure (SMILES) | Potency |
| --- | --- |
| CCNC(=O)CSc1nnc(-c2cccc(S(=O)(=O)N(CC)CC)c2)n1CCc1ccccc1 | inconclusive: 31.6 µM [inhibitor, single point] |
| CCOC(=O)c1ccc(NC(=O)Cn2c(=O)cc(C(F)(F)F)c3c(C)nn(C)c32)cc1 | inactive |
| COCCCn1c(SCC(=O)NC(C)C)nnc1-c1ccccc1 | inconclusive: 39.8 µM [inhibitor, partial curve, poor fit] |
| CC(C)c1ccc2oc3nc(N)c(C(=O)O)cc3c(=O)c2c1 | inconclusive: 15.8 µM [inhibitor, partial curve] |
| CN1C(=O)NC(=O)/C(=C/c2ccc([N+](=O)[O-])s2)C1=O | active: 14.1 µM |
| O=C(CSc1nnc(-c2ccco2)n1CC1CCCO1)c1ccc(F)cc1 (stereo not given) | inconclusive: 14.1 µM [inhibitor, partial curve] |
| COC(=O)c1cc(S(=O)(=O)N2CCOCC2)ccc1Sc1ccccc1N | inconclusive: 35.5 µM [inhibitor, partial curve, poor fit] |
| Cc1ccc(NNS(=O)(=O)c2ccc(C)cc2)cc1 | inconclusive: 12.6 µM [inhibitor, partial curve, poor fit] |
| CC1CCc2sc(-c3n[nH]c(=S)o3)cc2C1 (stereo not given) | inconclusive: 15.8 µM [inhibitor, partial curve, poor fit] |
| CN(C)c1c([N+](=O)[O-])cc(N2C(=O)C=CC2=O)cc1[N+](=O)[O-] | active: 7.94 µM |
| O=[N+]([O-])c1ccc(C[n+]2cccc3ccc4cccnc4c32)cc1 | inconclusive: 39.8 µM [inhibitor, single point] |
| Cc1cccc2sc(NC(=O)CCNC(=O)c3ccco3)nc12 | inactive |
| Nc1cccnc1Sc1ccc([N+](=O)[O-])cn1 | inconclusive: 5.01 µM [inhibitor, full curve] |
| COc1ccccc1NC(=S)NNC(=O)c1nn(C)c(C)c1Cl | inconclusive: 10 µM [inhibitor, partial curve, poor fit] |
| Cc1ccc(-c2n[nH]c(=S)n2/N=C/c2c(C)nn(-c3ccccc3)c2C)cc1 | inconclusive: 1.26 µM [inhibitor, full curve, poor fit] |
| O=C1C=CC(=O)N1c1ccc(Nc2ccccc2)cc1 | inconclusive: 25.1 µM [inhibitor, partial curve, poor fit] |
| CCOc1ccc2[nH]c(=S)sc2c1 | inconclusive: 28.2 µM [inhibitor, partial curve] |
| O=C(Nc1ccc2nc(-c3ccco3)c(-c3ccco3)nc2c1)NC1CC1 | inconclusive: 14.1 µM [inhibitor, partial curve] |
| COc1ccc(CNC(=O)c2c([S-])n(-c3ccc(C)cc3)c3cccc[n+]23)cc1 | inconclusive: 2.51 µM [inhibitor, full curve] |
| CO[C@H]1/C=C\C=C(\C)C(=O)NC2=CC(=O)C(NCCN(C)C)=C(C[C@@H](C)C[C@H](OC)[C@H](O)[C@@H](C)/C=C(/C)[C@@H]1OC(N)=O)C2=O | inactive |
| CN(Cc1cnn(C)c1)C(=O)C1CCC(=O)N(Cc2ccc(Cl)cc2)C1 (stereo not given) | inactive |
| O=C(COc1ccc(Cl)cc1Cl)c1ccc[nH]1 | inactive |
| O=Cc1cc(N=Nc2ccccc2Cl)ccc1O | inactive |

| Structure (SMILES) | Potency |
| --- | --- |
| CSc1nnc(SCc2nc3sc(C(=O)O)c(C)c3c(=O)[nH]2)s1 | inconclusive: 56.2 µM [inhibitor, single point] |
| Cc1ccc(NC2=NCC(=O)N2C2CCCC2)cc1 | inactive |
| COc1ccc(N2CC(NC(=O)c3ccc(S(=O)(=O)N4CCOCC4)cc3)CC2=O)cc1 (stereo not given) | inactive |
| CCOc1ccc(-c2c(=O)n(O)c3ccccc3[n+]2[O-])cc1 | inconclusive: 22.4 µM [inhibitor, partial curve] |
| CN1C(=O)c2ccccc2Sc2ccc(NC(=O)COc3ccc(Cl)cc3)cc21 | inactive |
| O=C1NC(=S)N(C2CC2)C(=O)/C1=C/c1ccc2c(c1)CCN2CCCCl | inconclusive: 28.2 µM [inhibitor, partial curve, poor fit] |
| CC(C)(C)c1ccccc1N=Cc1ccc2ccccc2n1 | inactive |
| Cc1[nH]n(-c2nc(-c3cccc([N+](=O)[O-])c3)cs2)c(=O)c1C | inactive |
| O=C(Cn1cc(SCc2ccc(F)cc2)c2ccccc21)N1CCOCC1 | inconclusive: 39.8 µM [inhibitor, single point] |
| O=c1c2ccccc2cnn1Cc1n[nH]c(=S)n1-c1ccccc1Cl | inconclusive: 3.55 µM [inhibitor, partial curve, poor fit] |
| CCOC(=O)N1CCc2c(sc(NCc3sccc3C)c2C(=O)Nc2ccccc2OCC)C1 | inconclusive: 3.55 µM [inhibitor, full curve, poor fit] |
| O=C(NCCc1cn[nH]c1)C1CCC(=O)N(CCc2cccc(F)c2)C1 (stereo not given) | inconclusive: 31.6 µM [inhibitor, single point] |
| COC(=O)C1=C(C)NC(=O)NC1c1ccco1 (stereo not given) | inactive |
| COc1ccc(C)cc1-n1c(-c2ccncc2)n[nH]c1=S | active: 14.1 µM |
| COc1cc2nc(N3CCN(C(=O)[C@H]4COc5ccccc5O4)CC3)nc(N)c2cc1OC | inactive |
| Cc1cc(O)c(-c2cc(O)c(C)cc2O)cc1O | inconclusive: 17.8 µM [inhibitor, partial curve, poor fit] |
| COc1cc(/C=C/C=C2/CC/C(=C/C=C/c3ccc(O)c(OC)c3)C2=O)ccc1O | inconclusive: 39.8 µM [inhibitor, partial curve, poor fit] |
| CCc1ccc(OCC(=O)NCC(c2ccc(OC)cc2)N2CCOCC2)cc1 (stereo not given) | inactive |
| Fc1ccc(CNc2cc(-c3ccccc3)nc3nncn23)cc1 | inactive |
| CCn1c(-c2csc3c2CCC(C)C3)n[nH]c1=S (stereo not given) | inconclusive: 14.1 µM [inhibitor, partial curve] |
| CC1=C/C(=N\N=C2\NC(=O)C(CC(=O)Nc3ccccc3)S2)CC(C)(C)C1 (stereo not given) | inactive |
| C[C@@H]1CCCCO[C@@H](CN(C)Cc2ccc(C(F)(F)F)cc2)[C@@H](C)CN([C@H](C)CO)C(=O)c2cc(N(C)C)ccc2O1 | inconclusive: 7.94 µM [inhibitor, partial curve] |
